Part of at least one peptide drawing is inferred or uncertain, most often the ends. Some entries repeat one wording, which the source may state once for all of them. Ends that are not written are not given here.
How the values were obtained:
Type in all cases: cell-based
[1] = test system: Tpx-C primed spleen cells from BALB/c mice; assay: In vitro proliferation assay, Tpx-C primed spleen cells; details: BALB/c mice after 4 immunizations with r-fragment Tpx-C (residue 101-163)
Procedure: FIG. 16. Stimulation index profile of BALB/c mice spleen cells after 4 immunizations with Tpx-C. Stimulation was tested with peptide or protein at three different concentrations: Open bars--1×10^-5 M peptide, 5×10^-6 M Frag C or Tpx-C; "uphill" hatch--1.25×10^-6 M peptide; 6.25×10^-7 M Frag C or Tpx-C; "downhill" hatch--1.56×10^-7 M peptide, 7.8×10^-8 M Frag C, Tpx-C: and stippled--9.75×10^-9 M Frag-C or Tpx-C. The blank was 5110 cpm.
The peptides of the invention can be tested in a proliferation assay for T cell responses. Generally, lymphocytes from a sensitized host are obtained. The host can be a mouse that has been immunized with a vespid venom antigen 5, or with a crossreactive protein, such as testes specific protein. Using techniques that are well known in the art, T lymphocyte response to the peptide can be measured in vitro. In a specific embodiment, infra, T cell responses are detected by measuring incorporation of ^3 H-thymidine, which increases with DNA synthesis associated with proliferation. Cell proliferation can also be detected using an MTT assay [Mossman, J. Immunol. Methods, 65:55-63,(1983); Niks and Otto, J. Immunol. Methods, 130:140-151 (1990)]. […] Alternatively, mRNA for lymphokines can be detected, e.g., by amplification [see Brenner, et al., Biotechniques, 7:1096 (1989)] or in situ hybridization [see, e.g., Kasaian and Biron, J. Immunol., 142:1287 (1989)]. […]

[2] = test system: spleen cells from r-fragment IN (residue 1-114) immunized BALB/c mice; assay: In vitro proliferation assay, spleen cells of BALB/c mice immunized with r-frag IN; details: 5 immunizations with r-frag IN (residue 1-114), FIGS. 7 and 9
[3] = test system: r-Ag5 specific spleen cells from P/J mice; assay: In vitro proliferation assay, spleen cells of r-Ag5-immunized P/J mice; details: spleen cells from mice immunized 5 times with rAg5; blank 1730 cpm
Procedure: (§1) FIG. 12. Stimulation index profile of P/J mice spleens after 5 immunizations with r-Ag5. In vitro proliferation assays were performed with peptides at three concentrations: 1×10^-5 M (open bar), 1.25×10^-6 M ("uphill" hatch), and 1.56×10^-7 M ("downhill" hatch). The corresponding concentrations of recombinant Antigen 5 were 1.0 ×10^-6 M, 1.25×10^-7, and 1.56×10^-8 M. The blank was 1730 cpm.
(§2) The peptides of the invention can be tested in a proliferation assay for T cell responses. Generally, lymphocytes from a sensitized host are obtained. The host can be a mouse that has been immunized with a vespid venom antigen 5, or with a crossreactive protein, such as testes specific protein. Using techniques that are well known in the art, T lymphocyte response to the peptide can be measured in vitro. In a specific embodiment, infra, T cell responses are detected by measuring incorporation of ^3 H-thymidine, which increases with DNA synthesis associated with proliferation. Cell proliferation can also be detected using an MTT assay [Mossman, J. Immunol. Methods, 65:55-63,(1983); Niks and Otto, J. Immunol. Methods, 130:140-151 (1990)]. Alternatively, lymphokine production assays can be practiced according to the present invention. In one embodiment, lymphokine production can be assayed using immunological or co-stimulation assays [see, e.g., Fehlner et al., J. Immunol., 146:799 (1991)] or using the ELISPOT technique [Czerkinsky, et al., J. Immunol. Methods, 110:29 (1988)]. Alternatively, mRNA for lymphokines can be detected, e.g., by amplification [see Brenner, et al., Biotechniques, 7:1096 (1989)] or in situ hybridization [see, e.g., Kasaian and Biron, J. Immunol., 142:1287 (1989)]. Of particular interest are those individuals whose T cells produce lymphokines associated with IgE isotype switch events, e.g., IL-4 and IL-5 [Purkeson and Isakson, J. Exp. Med., 175:973-982 (1992)]. Also of interest are the peptide fragments of the vespid venom antigen 5 that contain epitopes recognized by T cells involved in IgE switch events. Any method for detecting T cell proliferation known in the art can be used with the immunodominant vespid antigen 5 peptides obtained according to the present invention.
(§3) In the present Example, a series of 15 to 20-residue peptides with 10-residue overlaps to encompass the entire white faced hornet Ag5 molecule (form 2) was synthesized. These peptides were used for mapping T cell epitopes of hornet Ag5 by their stimulation of specific murine spleen cells immunized with native or recombinant Antigen 5. These peptides were also used to study the cross reacting T cell epitopes of hornet antigen 5 and a mouse testis protein Tpx [Mizuku et al., Mammalian Genome, 3:274-280 (1992)].
T cell response in mice of different haplotypes to recombinant hornet Ag5. […]

[4] = test system: r-Ag5 specific spleen cells from C3H/He mice; assay: In vitro proliferation assay, spleen cells of r-Ag5-immunized C3H/He mice; details: spleen cells from mice immunized 5 times with rAg5; blank 3130 cpm
Procedure: as §1, with “13.” for “12.”, “C3H/He” for “P/J”, “1.0×10^-6” for “1.0 ×10^-6”, “3130” for “1730”
as §2, §3
T cell response in mice of different haplotypes to recombinant hornet Ag5. FIGS. 11 to 13 show the proliferative response of spleen cells for mice of ASW/Sn, P/J, and C3H/He, respectively. The results for ASW/Sn mice in FIG. 11 indicate that there are four peptides with stimulation indices of ≥4: peptides 6, 7, 9, and 18. The results for P/J mice in FIG. 12 show multiple peptides with stimulation indices of ≥4: peptides 1, 2, 5, 9, 12, 13, 14, 15, 20, and 17. The data for C3H/He mice in FIG. 12 indicate three peptides with stimulation indices of ≥4: peptides 2, 5 and 15.

[5] = test system: r-Ag5 specific spleen cells from mice of different strains; assay: Summary of proliferation indices across mouse strains; details: four strains BALB/c, ASW/Sn, C3H/He, P/J, C57B1/6 excluded
Source text: Summary of proliferation indices of r-Ag5 specific spleen
cells from mice of different strains on stimulation with the
dominant T cell epitope peptides^1
^1 Dominant T cell epitopes are defined as those peptides which showe
stimulation indices of ≥4 in at least one of 5 strains of mice
The present Example defines indices of 4 or greater for proliferation of Ag5- specific cells as containing a T cell epitope of Ag5. With this definition, the data in FIGS. 3-13 for mice of 5 strains with different haplotypes would indicate that the T cell epitopes of Ag5 are distributed throughout the entire molecule. As C57B1/6 mice is a poor responder, its data are excluded in the following comparison.
The data in Table 4 indicate that 14 peptides contain T cell epitopes of Ag5. Three of these peptides are recognized by three of the four strains tested, five of them by two strains and the remaining six by only one strain. […] They are peptides 1, 2, 5, 6, 9, 15, 20 and 18. […] This is particularly apparent for peptides 6, 20, and 18.

In the case of IEDNWYTHYLVCNYGPGGND [Peptide 18], the “stimulation indices, Tpx-C primed spleen cells (FIG. 16)” value [1] is reported as 6, the “proliferation of spleen cells from r-fragment IN immunized mice” value [2] is reported as “stimulated” and the “Stimulation Index P/J” value [3] is reported as 2.5. The “Stimulation Index C3H/He” value [4] was 2.9, the “recognition by more than one mouse strain (stimulation indices of ≥4)” value [5] was “recognized by two or three strains of mice” and the “recognition by more than one mouse strain (stimulation indices of ≥4)” value ([5]; listed as SEQ ID NO:26) was “dominant in more than one strain of mouse”.

Source: patent publication US6106844A, “Immunomodulatory peptides of vespid antigen 5” (The Rockfeller University, priority 1998, dated 2000)
